The text below walks through data of the RNAGym collection of RNA variant scans (doi:10.1093/nar/gkz1192).

Sequences and labels used below:
B1: CPEB3 Ribozyme (parent)
chain: UAACAGGGGGCCACAGCAGAAGCGUUCACGUCGCAGCCCCUGUCAGAUUCUGGUGAAUCUGCGAAUUCUGCUGUAUAUCUC

The source gives no read counts; variants with many changes may rest on few reads.

Variants of B1 are the subject of the data set. Briefly: self-cleavage, relative activity (ratio to wild type); higher = more cleavage; in vitro, sequencing. The essentials:
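Relative activity was defined as the cleaved/total read fraction for a variant divided by the same fraction for the unmutated ribozyme. CPEB3 self-cleaving ribozyme libraries were made by rounds of error-prone PCR, barcoded, and transcribed in vitro with T7 RNA polymerase for 5 hours at 37°C, and cleavage ran through transcription plus a 15 min DNase I step before EDTA. Illumina sequencing of template-switched reverse transcripts gave the reads, and DNA sequencing mapped the barcodes. Averages come from three batches, using variants with at least 5 reads.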
Take UAACAGGGGGCCACAGCGGAAGCGUUCACGUCGCUGCCCCUGUCAGAUUCUGGUGAAUCUGCGAAUACUGCAGUAUAUCUC [A18G A35U U67A U72A]: the self-cleavage was 0.1.

With UAACAGGGGGCCACAGCGGAAGCGUUCCCGUCGCAGCCCCUGUCAGAUUCUGGUGAAUCUGCGAAUUCUGCCGUAUAUCUC [A18G A28C U72C], the self-cleavage was found to be 0.3.

In the case of UAACAGGGGGCCACAGCGGUAGCGUUAACGUCGCAGCCCCUGUCAGAUUCUGGUGAAUCUGCGAAUACUGCUGUAUAUCUC [A18G A20U C27A U67A], the self-cleavage came to 0.09.

For the variant UAACAGGGGGCCACAGCGGAUGCGUCCACGUCGCAGCCCCUGUCAGAUUCUGGUGGAACUGCGAAUUCUGCUGUAUAUCUC [A18G A21U U26C A56G U58A], the self-cleavage came out at 0.05.

Consider UAACAGGGGGCCACAGCGGAGGCGUUCACGUCGCAGCCCCUGUCGGAUUCUGGUGAAUUUGCGAAUUCUGCUGUAUAUCUC [A18G A21G A45G C59U], for which the self-cleavage came out at 0.16.

In the case of UAACAGGGGGCCACAGCGGAAGCGUUCGCCUCGCAGCCCCUGUCAGAUUCUGGUGAAUCUGCGAAUUCUGCUGUAUAUCUC [A18G A28G G30C], the self-cleavage stood at 0.1.

In the case of UAACAGGGGGCCACAGCGGAGGCGUUCACGUCGCAGCCCCUGUCAGAUUCUGGUGAAUCUGCGUAUUCUGCUGUAUAUCUC [A18G A21G A64U], the self-cleavage was found to be 0.19.

In the case of UAACAGGGGGCCACAGCGGAAGCGUUCGCGUCGCAGCCCCUGUCGGAUUCUGGUGAAUCUGCGAAUUCUGCUGUAUAUCUC [A18G A28G A45G], the self-cleavage was 0.24.

As for UAACAGGGGGCCACAGCGGAAGCGUUCACGUCGCUGCCCCUGUCAGAUUCCGGUGAAUCUGCGAUUUCUGCUGUGUAUCUC [A18G A35U U51C A65U A75G], the self-cleavage turned out to be 0.08.

In the case of UAACAGGGGGCCACAGCGGUAGCGUUCACGUCGCAGCCCCUGUCAGAUUCUGGAGAAUCUGCGAAUACUGCUGUAUAUCUC [A18G A20U U54A U67A], the self-cleavage worked out at 0.96.

Turning to UAACAGGGGGCCACAGCGGAAGCGUUCACGUCGCAGCCCCUGUCGUAUUCUGGUGGAUCUGUGAAUUCUGCUGUAUACCUC [A18G A45G G46U A56G C62U U78C], the self-cleavage worked out at 0.11.

In the case of UAACAGGGGGCCACAGCGGAAGCGUUCCCGCCGCAGCCCCUGUCAGAUUCUGGUGAUUCCGCGAAUUCUGCUGUAUAUCUC [A18G A28C U31C A57U U60C], the self-cleavage was 0.03.

As for UAACAGGGGGCCACAGCGGAAGCGUUCACGUCGCAGCCCCUGUCCGAUUCUGGUAAAUCUGCGAAUUCUGCCGUAUAUCUC [A18G A45C G55A U72C], the self-cleavage came out at 0.23.

As for UAACAGGGGGCCACAGCGGAAGCGUUCCCGUCGCAGCCCCUGUCAGACUCCGGUGAAUCUGCGAAUUCUGCCGUAUAUCUC [A18G A28C U48C U51C U72C], the self-cleavage is 0.18.

Turning to UAACAGGGGGCCACAGCGGAAGCGUUCCCGCCGCAGCCCCUGUCAGAUUCUGGUGAAUCUGCGAAUUAUGCUGUAUAUCUC [A18G A28C U31C C68A], the self-cleavage turned out to be 0.04.

For UAACAGGGGGCCACAGCGGAUGCGUUCACGUCGCAGCCCCUGUCAGAUUCUGGUGAAUCUGCGAAUUCCGCUGUAUAUCUC [A18G A21U U69C], the self-cleavage came out at 0.39.

Consider UAACAGGGGGCCACAGCGGAAGCGUUCUCGUCGCAGCCCCGGUCAGAUUCUGGUGAAUCUGCGAAUUCUGCUGUAUAUCUC [A18G A28U U41G], for which the self-cleavage was found to be 0.39.

Consider UAACAGGGGGCCACAGCGGAGGCGUUCACGUCGCAGCCCCUGUCAGAUUCUGGUGAAUCUGCGAAUUCCGCCGUAUAUCUC [A18G A21G U69C U72C], for which the self-cleavage is 1.1.

Turning to UAACAGGGGGCCACAGCGGAAGCGUUCGCGUCGCAGCCCCUGUCGGAUUCUGGUGAAUCUGCGAAUUCUGCUGAAUAUCUC [A18G A28G A45G U74A], the self-cleavage is 0.24.

UAACAGGGGGCCACAGCGGAGGCGUUCACGUCGCAGCCCCUUUCAGAUUCCGGUGAAUCUGCGAAUUCUGCUGUAUAUCUC [A18G A21G G42U U51C]: the self-cleavage turned out to be 0.06.

UAACAGGGGGCCACAGCGGUAGCGUUCACGUCGCAGCCCAUGUCAGAUUCUGGUGAAUCUGCGAAUUCUGCUGUAUAUCAC [A18G A20U C40A U80A]: the self-cleavage amounted to 0.09.

On to UAACAGGGGGCCACAGCGGAAGCGUUCACGUCGCGGCCCCUGUCAGAUUCUGGUGAAUCUGCAAAUUCUGCUGUAUAUCUC [A18G A35G G63A], for which the self-cleavage amounted to 1.14.

Consider UAACAGGGGGCCACAGCGGUAGCGUUCACGUCGCAGCCCCUGUCGGGUUCUGGUGAACCUGCAAAUUCUGCUGUAUAUCUC [A18G A20U A45G A47G U58C G63A], for which the self-cleavage was 0.07.

UAACAGGGGGCCACAGCGGGAGCGUUCACGUCGCAGCCCCUGUCAGAUUCUGGUGAAUCUGCGAAUUCUGCUGCACAUCUC [A18G A20G U74C U76C]: the self-cleavage was determined as 0.45.

For UAACAGGGGGCCACAGCGGAAGCGUUCACGUCGCGGCCCCUGUCAGAUUCUGGUGAGUCUGCGAAUUCUGCUGUAGAUCUC [A18G A35G A57G U76G], the self-cleavage came to 0.41.

Turning to UAACAGGGGGCCACAGCGGUAGCGUUCACGUCGCAGCCCCUGUCUAAUCCUGGUGAAUCUGCGUAUUCUGCUGUAUAUCUC [A18G A20U A45U G46A U49C A64U], the self-cleavage worked out at 0.09.

For UAACAGGGGGCCACAGCGGAUGCGUUCACGACGCAGCCCCUGUCAGAUUCUGGUGAAUCUGCGAAUUCUCCUGUAUACCUC [A18G A21U U31A G70C U78C], the self-cleavage is 0.06.

Take UAACAGGGGGCCACAGCGGAAGCGUUCACGUCGCGGCCCCUGUCAGAUUCUGGUGAAUCUGCGAAUUCUGCUGUAUACCUC [A18G A35G U78C]: the self-cleavage was determined as 0.75.

Regarding UAACAGGGGGCCACAGCGGAAGCGUUCACGUCGCUGCCCCUGUCAGAUUCUGGUGAAUCUGCGAACUCUGCUGUUUAUCUC [A18G A35U U66C A75U], the self-cleavage is 0.12.

On to UAACAGGGGGCCACAGCGGAAGCGUUCACGUCGCGGCCCCUGUCGGAUUCUGGUGGAUCUGCGAAUUCUGCUGUGUAUCUC [A18G A35G A45G A56G A75G], for which the self-cleavage was found to be 0.8.

For the variant UAACAGGGGGCCACAGCGGAAGCGUUCGCGUCGCAGCCCCCGCCAGAUUCUGGUGAAUCUGCGAAUUCUGCUGUAUAUCUC [A18G A28G U41C U43C], the self-cleavage amounted to 0.51.

Take UAACAGGGGGCCACAGCGGAAGCGUUCUCGUCGCAGCCCCUGUCAGAUUCCGGUGAAUCUGCGAAUUCUGCUGUAUAUCUC [A18G A28U U51C]: the self-cleavage is 0.37.

In the case of UAACAGGGGGCCACAGCGGAAGCGUUCACGUCGCGGCCCCAGUCAGAUUCUGGAGAAUCCGCGAAUUCUGCUGUAUAUCUC [A18G A35G U41A U54A U60C], the self-cleavage came to 0.41.

UAACAGGGGGCCACAGCGGAAGCGUUCACGUCGCUGCCCCUGUCAGAUUCUGGUGAAUCUGCGUAUUCUGGUGUAUAUCUC [A18G A35U A64U C71G]: the self-cleavage turned out to be 0.06.
